Results: the supplement of paper PMC3334620
Over roughly 33,000 sequences, “E-score (-0.5 to 0.5)” has its median near -0.012; the highest 2% begin near 0.27. This is one part of the list.

Target: T1, Vhr1 (UniProt P40522)
T1 sequence: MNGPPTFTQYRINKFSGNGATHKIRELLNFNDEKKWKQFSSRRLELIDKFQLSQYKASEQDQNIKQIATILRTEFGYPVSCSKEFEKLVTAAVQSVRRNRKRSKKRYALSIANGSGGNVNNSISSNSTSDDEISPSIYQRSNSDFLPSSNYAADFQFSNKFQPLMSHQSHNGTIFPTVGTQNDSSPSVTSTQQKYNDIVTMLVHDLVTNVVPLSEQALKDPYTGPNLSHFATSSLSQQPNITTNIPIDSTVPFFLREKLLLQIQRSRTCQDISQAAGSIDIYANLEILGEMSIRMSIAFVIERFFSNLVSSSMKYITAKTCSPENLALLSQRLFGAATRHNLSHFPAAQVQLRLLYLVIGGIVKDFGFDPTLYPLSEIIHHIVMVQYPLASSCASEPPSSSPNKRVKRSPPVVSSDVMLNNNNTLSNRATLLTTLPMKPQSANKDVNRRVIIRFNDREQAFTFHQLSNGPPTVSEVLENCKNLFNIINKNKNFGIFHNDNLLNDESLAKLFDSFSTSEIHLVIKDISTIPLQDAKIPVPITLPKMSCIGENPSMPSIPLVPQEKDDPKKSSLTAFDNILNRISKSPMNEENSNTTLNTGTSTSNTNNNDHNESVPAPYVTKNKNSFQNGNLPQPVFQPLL
Test: PBM E-score (8-mer binding enrichment) (E-score (-0.5 to 0.5)); higher = stronger / more preferred TF binding; most listed sequences are background and not binding sites
Conditions: protein concentration: 200 nM; construct: GST-full length
Method in brief: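 Detection of bound protein used fluorescent anti-GST, with scans normalised by masliner. The proteins were GST-tagged yeast transcription factors applied at about 100-200 nM to universal all-10-mer Agilent arrays made double-stranded by primer extension. Each ungapped eight-base word, pooled with its reverse complement, was scored with an E-score from the Universal PBM Analysis Suite.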

| Sequence | PBM E-score |
| --- | --- |
| CTCTCGTA | 0.00128 |
| GCACCCCC | -0.138 |
| ACCGTGAT | 0.13 |
| ACCTGACG | -0.0943 |
| ACCGGGTG | 0.127 |
| GGGGAACC | -0.0109 |
| TGGTCACA | 0.035 |
| CTGACCAA | 0.0537 |
| AGCAACCT | 0.0102 |
| AACAGGTG | -0.101 |
| CCAAATCG | -0.166 |
| ACAATACC | 0.144 |
| GGGGTACA | -0.169 |
| CCTCAGAC | -0.121 |
| ACCACATC | 0.276 |
| ATGTTGAG | 0.163 |
| AACTTTGG | -0.112 |
| GCAATTCC | -0.163 |
| AAACAAGT | -0.143 |
| CTGGGGCC | -0.203 |
| GCAATGGA | -0.128 |
| ACTACCGG | -0.0155 |
| CTGCCTCA | -0.166 |
| GATTAGCA | 0.0898 |
| TCGCAACA | 0.0193 |

| Sequence | PBM E-score |
| --- | --- |
| ATTGACCA | 0.108 |
| CGCTAATA | 0.042 |
| GTTAAACA | -0.0739 |
| AGCCCCGC | -0.0719 |
| AAGTGGCA | -0.149 |
| GATGCCCC | -0.201 |
| CATCTCGG | 0.0902 |
| ATATGACG | 0.0183 |
| ACCACAGA | 0.148 |
| AAATCGTC | -0.041 |
| AGAGCCAG | -0.036 |
| CACCATTA | 0.231 |
| ACTGCTTA | -0.0673 |
| AGCCGCAT | 0.0935 |
| CTCTAGAC | -0.104 |
| ACATACTA | 0.0441 |
| ATGAAAAG | -0.225 |
| AACGCTTC | -0.0677 |
| AACCACCA | 0.189 |
| CTAAAGAA | -0.196 |
| ACCGCGGG | 0.312 |
| AAAGTAGG | -0.0386 |
| AGAGGCTG | -0.116 |
| GTTGACTA | 0.261 |
| ACATGTAA | 0.0646 |

| Sequence | PBM E-score |
| --- | --- |
| GCCTTGGA | -0.116 |
| AACTCTCT | -0.115 |
| ACTGCCCG | 0.108 |
| CTCAAACA | 0.0326 |
| TAGGCCCA | -0.317 |
| ATATCTGC | 0.104 |
| ACGTCCCT | -0.165 |
| ACGATAAA | -0.181 |
| ATTGCACC | 0.0429 |
| CCTTGATA | -0.0757 |
| ATATTAAT | 0.233 |
| ATCTAGCA | -0.0151 |
| GGCGCTTA | -0.242 |
| ACGACAAC | 0.155 |
| ATGTGAAC | -0.0413 |
| AGCGCTTA | -0.0963 |
| TAAATTAA | -0.114 |
| TACTCCAA | 0.0683 |
| AACGAAGG | -0.252 |
| TCTTCGCA | -0.0178 |
| CTTCAGTC | -0.122 |
| ACGTCAAC | 0.0638 |
| GATCGACA | -0.166 |
| CCATTTGA | -0.172 |
| CGTGCTAA | -0.201 |

| Sequence | PBM E-score |
| --- | --- |
| AATCTTGT | 0.106 |
| GTCGCAGA | 0.132 |
| ACCCTCCC | 0.307 |
| AGTCTAGA | -0.164 |
| TCCAAGGA | -0.143 |
| GATCAGGC | -0.00147 |
| ATTGAGTG | 0.202 |
| AAGATGGA | -0.074 |
| GCTGCCCA | 0.0908 |
| AGCGTTGG | -0.0607 |
| GCTAATCA | 0.262 |
| GCGCTGGA | 0.168 |
| TATTGCCA | 0.0264 |
| CGAAGTCA | 0.203 |
| ATTCGCTC | -0.0609 |
| GAGCACTA | 0.0167 |
| ATCGCAAA | -0.164 |
| TACAATCA | 0.185 |
| AAATGTAG | -0.018 |
| ATTCGTAC | 0.192 |
| AAGAGATA | -0.188 |
| ACAGCTCC | 0.0267 |
| GATGTTCC | 0.0387 |
| CGAGCTCG | 0.307 |
| GGCGTAGA | 0.0231 |

| Sequence | PBM E-score |
| --- | --- |
| CTAACACC | 0.0542 |
| AATTCGCA | 0.0713 |
| GGGCTCAA | -0.162 |
| CAGAGGTA | -0.065 |
| GGATCCAC | 0.118 |
| GATGCCGC | -0.0247 |
| GACACTAC | 0.161 |
| CTAGAATA | 0.0202 |
| ATACTCGC | 0.0952 |
| GATCACGA | -0.00868 |
| CGCGTAGC | -0.0272 |
| CCCTACGG | -0.0881 |
| CCGCGGAG | 0.154 |
| CAGACATA | 0.14 |
| CCTTCAGC | -0.11 |
| GTCTTCAA | -0.121 |
| ACTAGCGA | -0.0168 |
| AAACGGCA | -0.0537 |
| ATACATCA | 0.21 |
| GCACAAAA | 0.025 |
| CACCATCG | -0.0838 |
| ACCCTCTC | -0.203 |
| GTCCCTAA | -0.129 |
| CTCGCAAA | -0.0973 |
| GACTGTAC | 0.132 |

| Sequence | PBM E-score |
| --- | --- |
| AGCAGAGC | -0.0338 |
| AGGACGTC | -0.114 |
| ACAATGCC | 0.00379 |
| ATAAAGGG | -0.143 |
| GCCTTGCA | -0.139 |
| CCTCTAAA | -0.161 |
| AGCATCTC | 0.0587 |
| CCTGATCA | -0.122 |
| CGTCATCC | 0.0455 |
| AAAGGATC | -0.152 |
| CCTGGGAA | 0.0187 |
| CCGATTCG | 0.232 |
| ACGGTCAA | 0.147 |
| CATTACGA | 0.137 |
| AACGATAA | -0.0588 |
| ATAACCCG | -0.014 |
| CTGTACGA | -0.00911 |
| AGTGTGAG | 0.147 |
| CAAATCCA | -0.0385 |
| CGCCACCG | 0.0792 |
| AAGGACTT | -0.318 |
| AGCCTCAT | -0.0807 |
| ATCTCATC | 0.0646 |
| CGAACCCA | 0.0781 |
| AAACTCTC | -0.145 |

| Sequence | PBM E-score |
| --- | --- |
| CATGGTTA | 0.215 |
| AGAGCGGA | 0.0658 |
| AATCACCT | 0.312 |
| AAGGGTCT | -0.277 |
| CTTGGATA | -0.0436 |
| ACCAGTAG | -0.0112 |
| ATTGGCGA | 0.073 |
| GTTTAGGA | -0.379 |
| GCGCGACC | 0.174 |
| GTCCATGA | 0.0204 |
| CAGAAGGA | -0.285 |
| AACCTAAG | -0.184 |
| CAGTTAAA | -0.189 |
| AGCCCTCG | -0.209 |
| TTCTTAAA | -0.216 |
| AACAGATG | -0.0163 |
| CCGTATGC | 0.0952 |
| CACTGTCA | 0.118 |
| CTCGCCTA | 0.098 |
| CAGGAAAA | -0.109 |
| CGCGAGAA | -0.138 |
| CCCGCAAA | 0.0295 |
